Among all 310,000 compounds or so, about 2,200 (0.71%) showed an effect of 50% or more. Effects have a minus sign here. This is one part of the list.
What follows are compounds tested against human ether-à-go-go-related gene (hERG) potassium channel (human, UniProt Q12809) (assay: primary screen, population patch clamp on CHO cells stably expressing hERG).
human ether-à-go-go-related gene (hERG) potassium channel, sequence (Q12809 whole entry, looked up): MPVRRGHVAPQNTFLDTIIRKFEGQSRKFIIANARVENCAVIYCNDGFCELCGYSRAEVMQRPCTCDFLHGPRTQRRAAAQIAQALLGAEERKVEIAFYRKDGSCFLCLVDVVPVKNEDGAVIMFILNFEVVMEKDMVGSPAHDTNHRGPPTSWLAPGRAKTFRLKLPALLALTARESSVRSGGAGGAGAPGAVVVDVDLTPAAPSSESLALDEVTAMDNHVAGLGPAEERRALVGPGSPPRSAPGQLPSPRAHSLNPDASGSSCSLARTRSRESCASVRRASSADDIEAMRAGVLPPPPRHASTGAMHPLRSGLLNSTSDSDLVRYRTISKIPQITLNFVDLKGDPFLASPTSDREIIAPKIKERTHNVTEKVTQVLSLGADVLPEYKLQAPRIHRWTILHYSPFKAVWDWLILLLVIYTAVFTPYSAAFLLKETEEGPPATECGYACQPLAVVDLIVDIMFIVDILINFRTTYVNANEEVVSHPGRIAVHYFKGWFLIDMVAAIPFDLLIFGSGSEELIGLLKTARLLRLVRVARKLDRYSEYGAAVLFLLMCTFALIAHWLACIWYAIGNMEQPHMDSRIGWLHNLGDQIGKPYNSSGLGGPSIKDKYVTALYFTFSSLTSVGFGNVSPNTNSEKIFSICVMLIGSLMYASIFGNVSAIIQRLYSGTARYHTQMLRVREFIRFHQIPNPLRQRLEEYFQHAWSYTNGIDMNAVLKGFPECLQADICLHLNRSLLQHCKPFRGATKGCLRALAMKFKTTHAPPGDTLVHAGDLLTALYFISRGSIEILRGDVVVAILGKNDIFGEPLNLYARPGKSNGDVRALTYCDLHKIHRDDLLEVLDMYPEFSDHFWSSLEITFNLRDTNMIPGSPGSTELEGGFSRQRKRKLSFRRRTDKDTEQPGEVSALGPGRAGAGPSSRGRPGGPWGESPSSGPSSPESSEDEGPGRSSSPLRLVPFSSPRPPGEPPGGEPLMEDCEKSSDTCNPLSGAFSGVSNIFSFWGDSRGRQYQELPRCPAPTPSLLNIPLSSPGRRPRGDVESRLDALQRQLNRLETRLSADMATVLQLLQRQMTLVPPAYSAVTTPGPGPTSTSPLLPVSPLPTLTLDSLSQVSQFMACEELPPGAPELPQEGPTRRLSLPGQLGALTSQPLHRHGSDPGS

Compound	hERG current change (%, negative = inhibition) at 1uM
COc1ccc2cc3cc(C(=O)NCC4CCCO4)oc3nc2c1 (centres unmarked)	4.72%
CC(=O)Nc1ccc(S(=O)(=O)N2CCn3cccc3C2C)cc1 (centres unmarked)	11.8%
COc1ccc(NC(=S)NNC(=O)Cn2nc([N+](=O)[O-])cc2C)cc1	6.52%
COc1ccc(/C=C2\SC(=S)N(CCC(=O)N3CCOCC3)C2=O)cc1	17.9%
COc1ccc(N2CCN(C(=O)Cc3ccc(S(=O)(=O)N4CCOCC4)s3)CC2)cc1	6.08%
N#C/C(=C/c1ccc(-c2ccccc2[N+](=O)[O-])o1)C(=O)NCCN1CCCCC1	-28.3%
CC(C)(C)NC(=O)C(c1ccccn1)N(C(=O)c1csnn1)C1CCCC1 (centres unmarked)	0.174%
COC(=O)c1ccc(Cn2nc(C)c([N+](=O)[O-])c2C)o1	2.01%
O=C(Nc1cc2c(cc1C(=O)O)OCCCO2)c1ccc(F)cc1F	8.81%
CC(=O)N1CCN(CC(=O)Nc2ccc(Cl)c(S(=O)(=O)N(C)C)c2)CC1	10.2%
O=C(CN1CCNCC1)Nc1ccccc1Cl	9.85%
O=C(c1cc([N+](=O)[O-])cc([N+](=O)[O-])c1)N(c1ccccn1)c1ccccn1	-3.99%
COCCNC(=O)CSc1nc2c(n1-c1ccccc1)CCCC2	13.3%
COc1ccc(-n2nc3c(c2NC(=O)c2ccccc2S(=O)(=O)C(F)F)CS(=O)(=O)C3)cc1	4.68%
COc1ccc(Br)cc1/C=c1\sc2nc(-c3ccco3)nn2c1=O	8.49%
Cc1ccc(SCc2ccc(C(=O)Nc3ccccc3C(=O)NC(C)C)cc2)cc1	14%
O=C1CC(c2ccc3c(c2)OCCO3)Oc2ccccc21 (centres unmarked)	11%
CN(c1ncc(C(F)(F)F)cc1Cl)N1C(=O)c2cccc([N+](=O)[O-])c2C1=O	5.72%
CC(=O)COc1ccc2oc(=O)cc(-c3cc4ccccc4o3)c2c1	7.1%
O=C(Cc1n[nH]c(=O)[nH]c1=O)N/N=C/c1ccccc1	13.6%
O=C(Nc1ccc(N2CCCC2)cc1)c1ccccc1[N+](=O)[O-]	10.9%
Cc1cc(C)cc(-n2nnc(C(=O)NCc3ccco3)c2N)c1	-12.3%

Compound	hERG current change (%, negative = inhibition) at 1uM
Cc1ccc(C)c(NC(=O)CSc2nccn2Cc2ccco2)c1	8.75%
CCN(CC)C(=O)c1[nH]cnc1C(=O)NCC(=O)OC(C)(C)C	-9.07%
O=C(NC1CCCC1)c1cccc2c1C(=O)c1ccc(Cl)cc1S2(=O)=O	9.45%
O=S(=O)(Nc1cccc2ncccc12)c1cccs1	-5.29%
C=C1C[C@H]2[C@@H]3C=C(C)C4=CC(=O)CC[C@]4(C)[C@H]3CC[C@]2(C)[C@@]1(OC(C)=O)C(C)=O	9.54%
Cc1cc(C)c2cc3c(N)c(C(=O)Nc4c(C)[nH]c(=O)[nH]c4=O)sc3nc2c1	8.22%
CC1(C)CC(=O)C(C=Nc2ccc(NC3=C(C#N)C(=O)CC(C)(C)C3)cc2)=C(O)C1	9.1%
CCS(=O)(=O)N1CCC(C(=O)Oc2ccc(Br)cc2)CC1	10.7%
CC(C)CSC1=NSC2=NC(=O)/C(=C\c3cccs3)C(=N)N12	32.7%
Cc1cc(=O)n(CC(=O)NC2CC2)c2c1c(C)nn2-c1ccccc1	16.7%
COc1cc(-c2nnc(-c3cc(OC)c(OC)c(OC)c3)o2)cc(OC)c1OC	2.16%
COc1ccc(/C=C2\CCCC(C(=O)C(F)(F)F)=C2O)cc1	12.7%
COc1ccc([N+](=O)[O-])cc1NC(=O)CCS(=O)(=O)c1ccc(Br)cc1	9.46%
COc1cc2c(cc1C=O)OCO2	6.14%
CCCCCCOC(=O)Cc1c(C)nc(N)[nH]c1=O	14.2%
COCCNC(=O)c1ccc(Cn2c(SCC(=O)NCC3CCCO3)nc3ccc(Br)cc3c2=O)cc1 (centres unmarked)	2.05%
COc1cccc(OCCCOc2ccccc2C(C)C)c1	2.38%
CC(=O)Nc1ccc(N2C(=O)c3ccc(S(=O)(=O)c4ccc(C(=O)O)cc4)cc3C2=O)cc1	9.5%
O=C(Oc1ccc2c(c1)CCC2)N1CCOCC1	11.3%
CN1CCN(C(=O)C(C(=O)c2ccc(F)cc2)n2ccccc2=O)CC1 (centres unmarked)	-0.557%
CCNC(=O)NC(=O)C(C)Oc1ccc(C(=O)OC)cc1 (centres unmarked)	8.65%
CCc1cc(C(=O)NNC(=S)NC(C)c2ccccc2)cs1 (centres unmarked)	4.52%

Compound	hERG current change (%, negative = inhibition) at 1uM
COc1ccc(-c2cc(C(=O)NNC3=NCCC3)c3c(C)nn(-c4ccccc4)c3n2)cc1	8.4%
COc1ccc(NC(=O)C2CCCN2S(=O)(=O)c2ccc3c(c2)CCC(=O)N3)c(OC)c1 (centres unmarked)	1.58%
O=[N+]([O-])c1cc(S(=O)(=O)Nc2ccccc2)ccc1NCc1cccnc1	11.1%
O=C(CCCN1C(=O)c2cccc3cccc(c23)C1=O)N1CCN(c2ccc(F)cc2)CC1	-0.672%
Cc1ccc(-c2noc(CN3CCCCC3)n2)cc1	31.5%
Cc1cc(C)c(NC(=O)CNC(=O)COC(=O)Cc2cccs2)c(C)c1	1.99%
Cc1ccc2nc(C(=O)O)c(C(=O)O)nc2c1	3.75%
NS(=O)(=O)c1ccc(NC(=O)c2ccccc2Cl)cc1	9.39%
S=c1[nH]c(-c2ccc(Br)cc2)cn1CCc1ccccc1	8.58%
O=C(CSc1nc2ccccc2s1)NNC(=S)Nc1ccccc1	2.11%
Cc1cc(C)n(-c2ccc(C(=O)Nc3cc(S(=O)(=O)N(C)C)ccc3Cl)cc2)n1	9.18%
CCC(=O)N1CCc2cc(S(=O)(=O)N3CCN(c4ccccn4)CC3)ccc21	7.91%
Clc1ccccc1-c1nnc2n1CCCCC2	21.7%
COc1cc(/C=N/Nc2ccccc2)ccc1O	14.5%
CCOP(=O)(OCC)c1nc(-c2ccc(F)cc2)oc1NCc1ccccc1	9.39%
O=C(CNC(=O)c1cccc([N+](=O)[O-])c1)NC1CCCc2ccccc21 (centres unmarked)	-7.25%
O=C1c2ccccc2C(=O)N1CCC(c1ccccc1)c1ccco1 (centres unmarked)	13.8%
Cc1ccc(C2CC(C(F)(F)F)n3nc(C(=O)Nc4c(C)n(C)n(-c5ccccc5)c4=O)cc3N2)cc1 (centres unmarked)	14.9%
CCC(=O)N1c2ccc(S(=O)(=O)CCC(=O)N3CCN(c4ccccc4F)CC3)cc2CC1C (centres unmarked)	-7.5%
COc1ccc(S(=O)(=O)N2CCC(C(N)=O)CC2)cc1C(=O)N1CCCCCC1	20.3%
COc1cccc(NC(=O)CN(C)C(=O)c2cc(S(=O)(=O)N3CCCCCC3)ccc2OC)c1	-2.8%
CCCCc1ccc(NC(=O)CSC2=C(C#N)C(c3ccco3)C3=C(CCCC3=O)N2)cc1 (centres unmarked)	10.8%

Compound	hERG current change (%, negative = inhibition) at 1uM
COc1ccc(C(=O)CCN2CCN(c3ccccc3OC)CC2)cc1.Cl	-4.48%
Cc1nc2ccc(N=NC3=C(O)CCCC3=O)cc2s1	12.5%
COCCn1c(SCC(=O)Nc2sc(C)c(C)c2C#N)nnc1-c1ccc(OC)cc1	-5.5%
CN(C)/C=C1\C(=O)N(c2ccc([N+](=O)[O-])cc2)N=C1c1ccccc1	-5.03%
Cc1cc(NC(=O)c2ccc3c(c2)C(=O)N(CC(C)C)C3=O)no1	12.3%
Cn1cc(Cl)c(C(=O)N2CCN(c3ncccn3)CC2)n1	9.35%
COc1ccccc1N(CC(=O)NC1CCCC1)C(=O)CCC(=O)Nc1cc(C)on1	8.06%
Cc1ccc2c(c1)c1c3n2CC(=C2C(=O)OC(C)(C)OC2=O)NC3CCC1.Cl (centres unmarked)	2.59%
COCCCn1c(Cc2csc(Nc3cccc(Cl)c3)n2)nnc1SCC(=O)OC1CCCCC1	-0.506%
COCCCn1c(-c2ccc(Cl)cc2)n[nH]c1=S	22.4%
O=C(NCc1ccccc1)NC1(C(=O)N2CCN3CCCC3C2)CCCCC1 (centres unmarked)	2.87%
Cc1cccc(N2CCN(C(c3ccccc3)c3nnnn3CC3CCCO3)CC2)c1C (centres unmarked)	9.57%
Cc1ccnc(NC(=O)CSc2ccccn2)c1	15.3%
COc1cccc2sc(N(CCCN(C)C)C(=O)c3sc4ccccc4c3Cl)nc12.Cl	10.5%
Cc1ccc(CNC(=O)C2CCC(CNc3c(N4CCOCC4)c(=O)c3=O)CC2)cc1 (centres unmarked)	20.6%
Cc1ccc(S(=O)(=O)/N=C2/NC(=O)/C(=C/c3ccccc3)S2)cc1	-17.1%
COc1cc2c(cc1OC)C(C(=O)Nc1cccc(C)n1)C(c1cccnc1)N(C)C2=O (centres unmarked)	4.28%
Cc1nnc(NC(=O)CSc2ccc3nnc(-c4ccccn4)n3n2)s1	12.1%
O=[N+]([O-])c1ccc(N2CCOCC2)cc1O	7.58%
CC1=C(C)CC(C(=O)c2ccc(C)cc2)C(C(=O)O)C1 (centres unmarked)	1.94%
